The supplement of paper PMC3334620
In all, about 33,000 sequences were measured (“E-score (-0.5 to 0.5)”: median about -0.032, highest 2% from about 0.36 on). Some of the results follow.

Target: T1, Sko1 (UniProt Q02100)
T1 sequence: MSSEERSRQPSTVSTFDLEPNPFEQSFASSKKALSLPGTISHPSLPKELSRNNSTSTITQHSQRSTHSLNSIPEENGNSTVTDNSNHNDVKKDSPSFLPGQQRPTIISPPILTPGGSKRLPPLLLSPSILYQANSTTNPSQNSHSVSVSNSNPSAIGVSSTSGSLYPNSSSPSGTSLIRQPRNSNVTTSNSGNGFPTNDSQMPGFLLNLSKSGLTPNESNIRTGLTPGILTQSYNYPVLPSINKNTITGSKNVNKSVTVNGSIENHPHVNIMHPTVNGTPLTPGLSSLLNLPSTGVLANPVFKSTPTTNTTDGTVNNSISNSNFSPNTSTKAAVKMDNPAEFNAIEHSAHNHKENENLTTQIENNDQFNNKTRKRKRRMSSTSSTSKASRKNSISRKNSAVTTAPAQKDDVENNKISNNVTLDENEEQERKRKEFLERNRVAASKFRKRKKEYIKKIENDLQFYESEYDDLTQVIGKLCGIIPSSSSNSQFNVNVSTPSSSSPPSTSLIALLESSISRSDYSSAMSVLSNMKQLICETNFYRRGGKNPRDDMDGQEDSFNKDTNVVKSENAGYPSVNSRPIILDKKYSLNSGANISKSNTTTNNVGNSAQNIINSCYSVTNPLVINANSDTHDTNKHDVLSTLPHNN
Experiment: PBM E-score (8-mer binding enrichment) (E-score (-0.5 to 0.5)); higher = stronger / more preferred TF binding; most listed sequences are background and not binding sites
Settings: protein concentration: 200 nM; construct: GST-full length
Method in brief: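 GST-tagged yeast TFs (full-length or DNA-binding domain) were made by PURExpress in vitro transcription/translation and applied at about 100-200 nM to universal all-10-mer Agilent arrays. The arrays were made double-stranded by primer extension, on fresh or once-stripped slides. Bound protein was detected with fluorescent anti-GST, and scans were normalised with masliner. Each ungapped eight-base word, pooled with its reverse complement, received an E-score (modified Wilcoxon-Mann-Whitney statistic) from the Universal PBM Analysis Suite.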

Row | Sequence | PBM E-score
1 | AACGGGAG | -0.159
2 | TAGACGGA | -0.0233
3 | AAGCTGCT | -0.161
4 | GCGGGACC | -0.308
5 | GAGCTTTA | 0.0316
6 | CCTCGAGA | -0.0559
7 | ACCTCACT | 0.135
8 | ACACGTAG | 0.433
9 | CGGTAGGC | -0.241
10 | GTGGCTTA | -0.067
11 | GAGGCTTA | -0.208
12 | CGCAGTCC | -0.0221
13 | CTTCCAAC | -0.199
14 | CGTAGCAA | 0.264
15 | AGTGTACA | 0.0231
16 | AGGGGAGA | -0.372
17 | TTTTAAAA | 0.233
18 | TAGTACGA | 0.22
19 | TATAGTAA | 0.121
20 | CCCCCCTC | -0.384
21 | AAGCGCAT | -0.0546
22 | CGAGTCGC | -0.243

Row | Sequence | PBM E-score
23 | ACCAATTA | 0.205
24 | GACAACAC | 0.128
25 | TCCCGCAA | -0.126
26 | CGTGACGA | 0.411
27 | ACACTACA | 0.167
28 | ACGGAGGC | -0.228
29 | GGAGTTGA | -0.104
30 | GATCACGC | 0.23
31 | CTCCTAGC | -0.353
32 | ACGAATAG | 0.144
33 | CCAGTAGG | -0.243
34 | TATTACCA | 0.227
35 | ACTCTCCG | -0.127
36 | ACCCACTG | -0.151
37 | CAGTACCC | -0.133
38 | ACCTAAAA | 0.164
39 | GGCGTTCA | -0.169
40 | TATACAGA | 0.164
41 | CGCATACA | 0.0477
42 | GCGGTAGA | -0.241
43 | ACTCTTAT | 0.079
44 | CATCGCAC | -0.065

Row | Sequence | PBM E-score
45 | TCAGGACA | 0.104
46 | CGCGTCTC | 0.063
47 | GACCGTTA | -0.144
48 | TGCTCACA | 0.106
49 | AGTGTTTC | 0.034
50 | AGTTGAAC | 0.0418
51 | ATACTCGG | 0.102
52 | AAGAATAC | 0.147
53 | GACAATTA | 0.124
54 | ACGAGGCG | 0.0199
55 | CCGAGGAG | -0.276
56 | CGGAGTAG | -0.274
57 | AGATAGCT | -0.153
58 | ACTGTGTC | -0.0725
59 | AATTAGGG | -0.0351
60 | ACGAACAA | 0.218
61 | CGGGGACG | -0.127
62 | AGTGTAAC | -0.0269
63 | GCCACACA | -0.28
64 | CACGCACA | 0.222
65 | GAAGAATA | 0.0308
66 | AGGGAGCC | -0.337

Row | Sequence | PBM E-score
67 | ACAATCAC | 0.0792
68 | CAATGGTA | 0.0536
69 | CTGGCTAA | -0.224
70 | GCAGGCGC | -0.128
71 | GCGCACGC | -0.121
72 | ATTCGAAC | 0.105
73 | GACTCTGA | -0.104
74 | GTCGGGGA | -0.0244
75 | TGGATGAA | 0.0106
76 | ACTTACGC | 0.302
77 | CGCCCCCG | -0.295
78 | AAGGCCCC | -0.279
79 | GCGAGGCC | -0.337
80 | ACCAACCG | 0.00076
81 | GACCAGAA | -0.0517
82 | GGGCCTTA | -0.0938
83 | GCCGGGCC | -0.296
84 | ACGAATAA | 0.3
85 | AGCCCCCA | -0.286
86 | TCCTTGCA | -0.292
87 | AGGTCTCG | -0.12
88 | GTTTCGAA | -0.0187

Row | Sequence | PBM E-score
89 | GCAGAACA | -0.0426
90 | GTACGAAC | 0.284
91 | AGATATCC | -0.00522
92 | AAATGATT | 0.263
93 | ATGTCAGA | 0.181
94 | ACGATCGC | 0.103
95 | AGCGAACA | 0.0054
96 | CTACTGGA | -0.136
97 | TCCGTGAA | 0.0239
98 | GTAAAGGA | 0.0237
99 | CACTTGAG | -0.0823
100 | ACCCCCTA | -0.383
101 | AGGGACAA | -0.108
102 | TAAGAGCA | 0.0638
103 | GCTTAGAC | -0.212
104 | CCAAGGCC | -0.239
105 | ATGAGTGG | -0.122
106 | GCGAATCA | 0.104
107 | CCCCTGGA | -0.262
108 | CAATAAAG | 0.0505
109 | ACGCGCAT | 0.263
110 | CACGAACA | 0.11
